Assay results taken from US20230203096A1, “EPHA4 TARGETING COMPOUNDS AND METHODS OF USE THEREOF” (priority 2020, published 2023).
At least one peptide structure holds a part that was inferred or is arguable (an end, a ring closure or a residue). At least one compound was matched to its structure with a doubt left. Square brackets hold non-standard residues; d marks the D form. Peptide text beside a SMILES is read from it. Phe(4-guanidino) = N=C(N)Nc1ccc(C[C@H](N)C(=O)O)cc1; Trp(6-OMe) = COc1ccc2c(C[C@H](N)C(=O)O)c[nH]c2c1; Trp(5-OH) = N[C@@H](Cc1c[nH]c2ccc(O)cc12)C(=O)O; Bip = N[C@@H](Cc1ccc(-c2ccccc2)cc1)C(=O)O; 2Nal = N[C@@H](Cc1ccc2ccccc2c1)C(=O)O; hArg = N=C(N)NCCCC[C@H](N)C(=O)O; GABA = NCCCC(=O)O; βAla = NCCC(=O)O

Legend:
[1] = target: T1, recombinant EphA4 ligand binding domain (Homo sapiens, UniProt P54764, C204A); experiment: Isothermal titration calorimetry (ITC) against EphA4-LBD; settings: for Kd: recombinant Epha4 ligand binding domains
T1 construct: His tag (N); made in house; host or cells: E. coli Rosetta-Gami B(DE3), pET15b
T1 sequence (P54764 29-209 C204A): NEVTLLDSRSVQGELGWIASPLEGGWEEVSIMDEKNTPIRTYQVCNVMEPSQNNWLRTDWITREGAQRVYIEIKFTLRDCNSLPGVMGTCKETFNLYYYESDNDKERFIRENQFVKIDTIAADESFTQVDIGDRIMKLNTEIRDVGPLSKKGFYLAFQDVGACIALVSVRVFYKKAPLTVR
Method: (§1) Peptides were synthesized by using standard solid-phase synthesis protocol, using the BAL resin as anchoring for the C-terminal amines. Isothermal Titration Calorimetry (ITC) measurements were performed in a reverse fashion by titrating the protein into the ligand solution. Solution nuclear magnetic resonance (NMR) experiments were conducted on a 700 MHz Bruker Avance spectrometer equipped with a TCI cryoprobe. Each protein sample was dissolved into an NMR tube at a final concentration of 20 μM (1% DMSO-d6) in the presence of 20 μM of each compound.
The fragments were transformed into Rosetta-Gami B(DE3) competent cells and grown in LB medium at 37° C. with 100 μg/mL of ampicillin until reaching an OD600 of 0.6-0.7 followed by induction with 0.4 mM IPTG overnight at 20° C. Bacteria were then collected by centrifugation and lysed by sonication at 4° C. […] EphA4 LBD with ^13C^ε/^1H^ε-Met labeled was expressed like previously described but adding a suspension of 100 mg of ^13C^ε/^1H^ε-Methionine in 1 mL of DMSO per liter of LB medium, 10 minutes before induction. […] Transformation, expression, and purification of EphA3-LBD chimera was performed as described above for EphA4-LBD.
Isothermal titration calorimetry (ITC) measurements were performed using the Affinity ITC Autosampler from TA Instruments (New Castle, Del.). The titrations were performed in a reverse fashion by titrating the protein into the ligand solution. […] The syringe was filled with a 100 μM solution of EphA4-LBD, EphA3-LBD Chimera, or EphA2-LBD, and 20 injections of 2.5 μL each were performed into the cell containing a 20 μM solution of the compounds. The injections were made at 200 s or 400 s intervals with a stirring speed of 75 rpm. All the solutions were kept in the autosampler at 4° C. The analysis of the thermodynamics signatures and for dissociation constant determination was performed by the NanoAnalyze software (TA Instruments, New Castle, Del.) and subsequently exported into Microsoft Excel.

EphA4-LBD = target: T2, EphA4-LBD (Homo sapiens, UniProt P54764, C204A); experiment: 1D 1H aliphatic NMR chemical shift perturbation; format: binding; settings: test ligands at 20 μM; 1D ^1H aliphatic region of the EphA4-LDB
T2 construct: His tag (N); made in house; host or cells: E. coli Rosetta-Gami B(DE3), pET15b
T2 sequence (P54764 29-209 C204A): as above

[2] = target: T3, ^13C^ε-Met-labeled EphA4-LBD (Homo sapiens, UniProt P54764, C204A); experiment: 2D [13C,1H] HSQC NMR chemical shift perturbation of Met resonances; format: binding; settings: test ligands at 40 μM, EphA4-LDB at 20 μM
T3 construct: His tag (N); made in house; host or cells: E. coli Rosetta-Gami B(DE3), pET15b
T3 sequence (P54764 29-209 C204A): as above
Method: as §1, with “Each protein sample was dissolved into an NMR tube at a final concentration of 20 μM (1% DMSO-d6) in the presence of 20 μM of each compound.” left out
2D [^13C,^1H] correlation NMR spectra measured with such protein targets, collected in absence or presence of test ligands can be used to monitor ligand binding and make, albeit qualitative, determinations on possible conformational changes induced by test ligands on the protein target. […] In targeting EphA4, an important aspect regarding the activity of its ligands is whether these agents could be predicted to work as antagonists or agonists.
NMR spectra were acquired on Bruker Avance III 700 MHz spectrometer equipped with a TCI cryoprobe. All NMR data were processed and analyzed using TOPSPIN 3.6.1 (Bruker, Billerica, Mass., USA).
Chemical shift changes (A) in the 2D [^13C, ^1H] spectra were calculated as weight average perturbations observed in the ^1H and ^13C dimensions using the following Equation: […]

## N=C(N)NCCCC[C@H](NC(=O)[C@H](Cc1ccc(-c2ccccc2)cc1)NC(=O)[C@H](Cc1c[nH]c2ccccc12)NC(=O)CCCN)C(=O)N[C@H](Cc1ccccc1)C(N)=O [Compound E44] (H-[GABA]W[Bip][hArg][dF]-NH2)
[1]; Table 6
  -TΔS: 1.33 kcal/mol
  ΔH: -9.73 kcal/mol
  Kd: 696 nM
EphA4-LBD
  Δδ 1D Aliph-^1H NMR: +++ (+++ >0.3 ppm)

## C[C@@H](NC(=O)[C@H](CCCCNC(=N)N)NC(=O)[C@H](Cc1ccc(-c2ccccc2)cc1)NC(=O)[C@H](Cc1c[nH]c2ccccc12)NC(=O)CCCN)C(N)=O [Compound E36] (H-[GABA]W[Bip][hArg][dA]-NH2)
[1]; Table 6
  -TΔS: 2.77 kcal/mol
  ΔH: -11.58 kcal/mol
  Kd: 348 nM
EphA4-LBD
  Δδ 1D Aliph-^1H NMR: +++ (+++ >0.3 ppm)

## N=C(N)NCCCC[C@H](NC(=O)[C@H](Cc1ccc(-c2ccccc2)cc1)NC(=O)[C@H](Cc1c[nH]c2ccccc12)NC(=O)CCCN)C(=O)NCCC(N)=O [Compound E35] (H-[GABA]W[Bip][hArg][βAla]-NH2)
[1]; Table 6
  -TΔS: 1.65 kcal/mol
  ΔH: -9.94 kcal/mol
  Kd: 846 nM
EphA4-LBD
  Δδ 1D Aliph-^1H NMR: ++ (0.2< ++ <0.3)

## N=C(N)NCCCC[C@H](NC(=O)[C@H](Cc1ccc(-c2ccccc2)cc1)NC(=O)[C@H](Cc1c[nH]c2ccccc12)NC(=O)CCCN)C(=O)N[C@H](Cc1c[nH]c2ccccc12)C(N)=O [Compound E46] (H-[GABA]W[Bip][hArg][dW]-NH2)
[1]; Table 6
  -TΔS: -0.40 kcal/mol
  ΔH: -8.28 kcal/mol
  Kd: 439 nM
EphA4-LBD
  Δδ 1D Aliph-^1H NMR: ++ (0.2< ++ <0.3)

## N=C(N)NCCCC[C@H](NC(=O)[C@H](Cc1ccc(-c2ccccc2)cc1)NC(=O)[C@H](Cc1c[nH]c2ccccc12)NC(=O)CCCN)C(N)=O [Compound E3] (H-[GABA]W[Bip][hArg]-NH2)
[2]; Table 2
  Δδ ^13C^ϵ/^1H^ϵ Met 164: + (0< + <0.1 ppm)
[1]; Table 2
  -TΔS: 2.27 kcal/mol
  AH: -10.70 kcal/mol
[1]; Table 6
  -TΔS: 2.27 kcal/mol
  ΔH: -10.70 kcal/mol
EphA4-LBD
  Δδ 1D Aliph-^1H NMR: +++ (+++ >0.3 ppm)

## N=C(N)NCCCC[C@H](NC(=O)[C@H](Cc1ccc(-c2ccccc2)cc1)NC(=O)[C@H](Cc1c[nH]c2ccccc12)NC(=O)CCN)C(N)=O [Compound E2] (H-[βAla]W[Bip][hArg]-NH2)
[2]; Table 2
  Δδ ^13C^ϵ/^1H^ϵ Met 164: + (0< + <0.1 ppm)
[1]; Table 2
  -TΔS: 3.77 kcal/mol
  AH: -11.50 kcal/mol

## N=C(N)NCCCC[C@H](NC(=O)[C@H](Cc1ccc(-c2ccccc2)cc1)NC(=O)[C@H](Cc1c[nH]c2ccccc12)NC(=O)CCCN)C(=O)NCC(N)=O [Compound E34] (H-[GABA]W[Bip][hArg]G-NH2)
[1]; Table 6
  -TΔS: 2.76 kcal/mol
  ΔH: -11.29 kcal/mol
  Kd: 563 nM
EphA4-LBD
  Δδ 1D Aliph-^1H NMR: +++ (+++ >0.3 ppm)

## Cc1ccccc1-c1ccc(C[C@H](NC(=O)[C@H](Cc2c[nH]c3ccc(O)cc23)NC(=O)CCCN)C(=O)N[C@@H](CCCCNC(=N)N)C(N)=O)cc1 [Compound E16]
[2]; Table 4
  Δδ ^13C^ϵ/^1H^ϵ Met 164: + (0< + <0.1 ppm)
[1]; Table 4
  -TΔS: 3.29 kcal/mol
  ΔH: -12.08 kcal/mol

## COc1ccc2c(C[C@H](NC(=O)CCCN)C(=O)N[C@@H](Cc3ccc(-c4ccccc4)cc3)C(=O)N[C@@H](CCCCNC(=N)N)C(N)=O)c[nH]c2c1 [Compound E10] (H-[GABA][Trp(6-OMe)][Bip][hArg]-NH2)
[2]; Table 3
  Δδ ^13C^ϵ/^1H^ϵ Met 164: −
[1]; Table 3
  -TΔS: 2.84 kcal/mol
  ΔH: -10.49 kcal/mol

## N=C(N)NCCCC[C@H](NC(=O)[C@H](Cc1ccc(-c2ccccc2)cc1)NC(=O)[C@H](Cc1c[nH]c2ccc(O)cc12)NC(=O)[C@@H]1CC[C@@H](N)C1)C(N)=O [Compound E7]
[2]; Table 2
  Δδ ^13C^ϵ/^1H^ϵ Met 164: −
[1]; Table 2
  -TΔS: 1.46 kcal/mol
  AH: -9.82 kcal/mol

## N=C(N)NCCCC[C@H](NC(=O)[C@H](Cc1ccc2ccccc2c1)NC(=O)[C@H](Cc1c[nH]c2ccc(O)cc12)NC(=O)CCCN)C(N)=O [Compound E13] (H-[GABA][Trp(5-OH)][2Nal][hArg]-NH2)
[2]; Table 4
  Δδ ^13C^ϵ/^1H^ϵ Met 164: −
[1]; Table 4
  -TΔS: 1.27 kcal/mol
  ΔH: -8.49 kcal/mol

## N=C(N)Nc1ccc(C[C@H](NC(=O)[C@H](Cc2ccc(-c3ccccc3)cc2)NC(=O)[C@H](Cc2c[nH]c3ccccc23)NC(=O)CCCN)C(N)=O)cc1 [Compound E19] (H-[GABA]W[Bip][Phe(4-guanidino)]-NH2)
[2]; Table 5
  Δδ ^13C^ϵ/^1H^ϵ Metl64: −
[1]; Table 5
  -TΔS: 1.33 kcal/mol
  ΔH: -9.43 kcal/mol

## C[C@H](O)[C@@H](NC(=O)[C@H](CCCCNC(=N)N)NC(=O)[C@H](Cc1ccc(-c2ccccc2)cc1)NC(=O)[C@H](Cc1c[nH]c2ccccc12)NC(=O)CCCN)C(N)=O [Compound E37] (H-[GABA]W[Bip][hArg][dT]-NH2)
[1]; Table 6
  -TΔS: 1.35 kcal/mol
  ΔH: -9.13 kcal/mol
  Kd: 1970 nM
EphA4-LBD
  Δδ 1D Aliph-^1H NMR: ++ (0.2< ++ <0.3)

## Cc1ccc(-c2ccc(C[C@H](NC(=O)[C@H](Cc3c[nH]c4ccc(O)cc34)NC(=O)CCCN)C(=O)N[C@@H](CCCCNC(=N)N)C(N)=O)cc2)cc1 [Compound E15]
[2]; Table 4
  Δδ ^13C^ϵ/^1H^ϵ Met 164: −
[1]; Table 4
  -TΔS: 1.77 kcal/mol
  ΔH: -10.16 kcal/mol

## CC(C)C[C@@H](NC(=O)[C@H](CCCCNC(=N)N)NC(=O)[C@H](Cc1ccc(-c2ccccc2)cc1)NC(=O)[C@H](Cc1c[nH]c2ccccc12)NC(=O)CCCN)C(N)=O [Compound E45] (H-[GABA]W[Bip][hArg][dL]-NH2)
[1]; Table 6
  -TΔS: -0.20 kcal/mol
  ΔH: -8.12 kcal/mol
  Kd: 788 nM
EphA4-LBD
  Δδ 1D Aliph-^1H NMR: +++ (+++ >0.3 ppm)
